# Measurements published in PMC4336329 (PLoS ONE, 2015).
# The campaign covered roughly 310,000 compounds. About 2,200 (0.71%) showed an effect of 50% or more. The effect is printed as a negative number. The list shows a part of the results.
# Target: human ether-à-go-go-related gene (hERG) potassium channel (human, UniProt Q12809)
# Test: primary screen, population patch clamp on CHO cells stably expressing hERG
# human ether-à-go-go-related gene (hERG) potassium channel, sequence (Q12809 whole entry, looked up): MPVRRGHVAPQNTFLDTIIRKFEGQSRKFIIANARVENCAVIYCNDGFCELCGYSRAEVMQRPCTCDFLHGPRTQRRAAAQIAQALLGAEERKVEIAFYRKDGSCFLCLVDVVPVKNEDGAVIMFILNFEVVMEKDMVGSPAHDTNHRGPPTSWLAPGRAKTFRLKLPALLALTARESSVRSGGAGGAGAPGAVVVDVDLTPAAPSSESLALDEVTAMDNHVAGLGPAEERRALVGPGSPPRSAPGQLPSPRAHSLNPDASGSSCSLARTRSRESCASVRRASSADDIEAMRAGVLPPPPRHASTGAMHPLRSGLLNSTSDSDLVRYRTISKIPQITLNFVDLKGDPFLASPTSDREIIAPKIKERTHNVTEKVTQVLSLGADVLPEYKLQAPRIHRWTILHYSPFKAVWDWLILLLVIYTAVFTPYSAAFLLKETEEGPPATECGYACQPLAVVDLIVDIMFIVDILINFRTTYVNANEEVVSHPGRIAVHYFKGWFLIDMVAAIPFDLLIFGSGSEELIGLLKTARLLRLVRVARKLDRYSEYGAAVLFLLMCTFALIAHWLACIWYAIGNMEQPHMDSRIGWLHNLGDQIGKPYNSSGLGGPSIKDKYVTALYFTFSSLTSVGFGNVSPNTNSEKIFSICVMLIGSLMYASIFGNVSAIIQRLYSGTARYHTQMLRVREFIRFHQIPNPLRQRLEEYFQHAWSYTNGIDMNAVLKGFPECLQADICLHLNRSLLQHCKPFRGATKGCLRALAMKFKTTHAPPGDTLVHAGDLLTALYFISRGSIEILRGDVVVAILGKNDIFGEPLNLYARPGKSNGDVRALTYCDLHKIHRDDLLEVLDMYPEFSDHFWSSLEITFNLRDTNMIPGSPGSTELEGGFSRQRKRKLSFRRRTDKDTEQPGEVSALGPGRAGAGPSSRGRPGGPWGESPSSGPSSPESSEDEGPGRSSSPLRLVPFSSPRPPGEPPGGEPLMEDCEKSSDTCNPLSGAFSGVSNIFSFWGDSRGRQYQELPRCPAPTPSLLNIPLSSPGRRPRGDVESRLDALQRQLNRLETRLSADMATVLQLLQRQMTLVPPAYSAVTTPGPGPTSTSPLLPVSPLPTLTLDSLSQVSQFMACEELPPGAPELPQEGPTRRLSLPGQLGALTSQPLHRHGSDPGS
row,Compound,"hERG current change (%, negative = inhibition) at 1uM"
1,NS(=O)(=O)c1ccc(NNC(=O)c2ccccc2C(=O)O)cc1,17.8%
2,Cn1c(O)c(C2=NNC(c3ccc(Cl)cc3)C2)c(=O)n(C)c1=O (stereo not drawn),12.7%
3,COc1ccc(OC)c(NC(=O)COc2ccc(S(=O)(=O)N3CCCC3)cc2)c1,2.64%
4,CC(=Nc1ccccc1N)c1c(O)n(C)c(=O)[nH]c1=O,11.8%
5,Cc1cc(C)nc(NC(=O)c2cccc(Cl)c2)n1,18.2%
6,CC(C)NC(=O)C1CC(=O)N(C(C)c2ccccc2)C1 (stereo not drawn),7.83%
7,Cc1ccc(C2C3=C(CCCC3=O)Nc3[nH]c(=S)[nH]c(=O)c32)cc1 (stereo not drawn),9.42%
8,CC1CCCN(C(=O)c2ccc3c(c2)OCO3)C1 (stereo not drawn),15.4%
9,CC(NC(=O)c1nn(C)c2c1CS(=O)(=O)c1ccccc1-2)c1ccccc1 (stereo not drawn),13%
10,N/C(=N/O)c1nc(N2CCCCC2)nc(N2CCCCC2)n1,13.8%
11,Cc1ccc(C)c(NC(=O)c2cc(S(=O)(=O)N3CCCCC3)ccc2N2CCOCC2)c1,-12.9%
12,Cc1ccc(N2C(=O)N(Cc3ccccc3C)c3ccccc3S2(=O)=O)cc1,2.41%
13,CCOc1ccc(-c2nn3c(-c4ccc(F)cc4)nnc3s2)cc1,7.63%
14,O=C(NC1CCN(S(=O)(=O)c2ccccc2)CC1)c1cccc(F)c1,16.9%
15,N#CCSCC(=O)Nc1ccc(F)cc1,5.38%
16,Cc1cccc(C2=N/C(=C\c3cccnc3)C(=O)O2)c1,17.7%
17,CCCC[N+]12CCC(CC1)C(Cc1ccccc1)C2.[Br-] (stereo not drawn),17.1%
18,O=C(NCC(c1ccc(F)cc1)N1CCOCC1)c1ccc(C(=O)c2ccccc2)cc1 (stereo not drawn),-1.63%
19,Cc1[nH]c2ccccc2c1C(=O)CN1CCC(C)CC1,5.35%
20,Cc1cc[n+](CC(=O)c2ccc(NC(=O)c3ccccc3)cc2)cc1.[Br-],11.8%
21,CCOC(=O)/C(C#N)=C\c1cc(C)n(-c2ccccc2)c1C,10.5%
22,CN(C)CCCN(C(=O)c1ccc(C(=O)c2ccccc2)cc1)c1nc2cc3c(cc2s1)OCO3.Cl,9.56%
23,c1ccc(CN2CCN(CCCNc3ccc4nnc(-c5ccccc5)n4n3)CC2)cc1,-13.5%

row,Compound,"hERG current change (%, negative = inhibition) at 1uM"
1,O=C1c2cccc3cc([N+](=O)[O-])cc(c23)C(=O)N1c1nncs1,8.16%
2,CC1CCN(CCNC(=O)CCS(=O)(=O)c2ccc(Br)cc2)CC1,3.43%
3,Cc1ccc(SCC(=O)NCc2ccco2)cc1,11.4%
4,O=C(Nc1cc(Cl)c(O)c(Cl)c1)C1CCCO1 (stereo not drawn),11.1%
5,CN(C)NC(=O)C(NC(=O)c1ccccc1)C12CC3CC(CC(C3)C1)C2.Cl (stereo not drawn),8.26%
6,O=C(NC1CC1)C1=C[C@@H](C2CCCCC2)C[C@@H](OCCCCO)O1,10.8%
7,Cc1ccc(C(=O)N/C(=C\c2ccco2)C(=O)NCCN2CCOCC2)cc1C,8.38%
8,CC(C)CCn1nnnc1C(c1ccc(F)cc1)N1CCN(C(=O)c2ccco2)CC1 (stereo not drawn),2.42%
9,O=c1c2ccccc2oc2nc(-c3ccco3)n(-c3ccccc3)c(=O)c12,5.11%
10,C=CCn1c(SCC(=O)NCC2CCCO2)nnc1C1CCCCC1 (stereo not drawn),14.7%
11,Cc1cc(C)cc(NC(=S)NC(=O)CCN2C(=O)c3ccccc3C2=O)c1,11.4%
12,O=C(NCc1cn2ccccc2n1)c1ccc(Br)o1,9.26%
13,N#CCS(=O)(=O)c1ccccc1,19.6%
14,COc1ccc(N(CC(=O)NC2CCCCC2)C(=O)CNC(=O)c2ccco2)cc1,6.67%
15,CCOC(CNC(=O)c1nnc(Cc2cc(OC)c(OC)c(OC)c2)o1)OCC,8.8%
16,CCOC(=O)c1c(C)nc2sc(C(=O)Nc3ccccc3)c(N)c2c1-c1ccc(OC)cc1,14.6%
17,O=C(CCN1CCCCC1)NCNC(=O)CCN1CCCCC1,11.3%
18,C=CCN1CC[C@@]2(C)c3cc(O)ccc3CC1[C@@H]2C.Cl,0.191%
19,Cc1ccccc1NC(=O)NCCc1c[nH]c2ccccc12,10.5%
20,CC1CCN(S(=O)(=O)CCNC(=O)c2ccc3c(c2)OCO3)CC1,0.605%
21,CC(=O)c1c(C)[nH]c(C(=O)NCc2cccs2)c1C,8.54%
22,CCOc1ccc2nc(SCC#N)c(C#N)cc2c1,8.26%
23,CCOc1cc(N2CCOCC2)c(OCC)cc1NC(=O)CN1C(=O)NC2(CCc3ccccc32)C1=O (stereo not drawn),-7.8%

row,Compound,"hERG current change (%, negative = inhibition) at 1uM"
1,O=C(N/N=C/c1ccccn1)c1cccc(S(=O)(=O)N2CCCC2)c1,2.48%
2,COc1ccc(CCNC(=O)Cn2cccc2C(=O)c2ccccc2)c(OC)c1,13.6%
3,C=CCn1c(COc2ccc(F)cc2)nnc1SCC(=O)NC1CC1,12.6%
4,COc1ccc(C(=O)N2CCC(n3c(C)nc4cc(F)ccc43)CC2)cc1OC,-41.8%
5,COc1cccc(NC(=O)Cn2c(CCC(=O)O)ccc2-c2ccc(C)cc2)c1,7%
6,Cc1ccc(NC(=O)CSc2nc(=O)n(CCCN3CCOCC3)c3c2CCCC3)c(C)c1,9.2%
7,Cc1ccc(NC(=O)CN(C)CC(=O)Nc2cccc(F)c2)cc1[N+](=O)[O-],1.27%
8,Cc1cc(NC(=O)Nc2ccc(Cl)c(Cl)c2)n(-c2ccccc2)n1,10.3%
9,COc1ccc(/C=C2\SC(=O)N(CCC(=O)Nc3ccc(S(=O)(=O)Nc4nccs4)cc3)C2=O)cc1,8.56%
10,C=CCOc1ccccc1CN1CCCN(C)CC1,11.7%
11,CSc1nnc(C)c(=O)n1COC(=O)COc1ccc2ccccc2c1,12.2%
12,CCSc1ccccc1C(=O)NCc1ccc2c(c1)OCO2,-2.88%
13,O=C(COC(=O)CCc1nc2ccccc2s1)Nc1ncc(Cl)cc1Cl,8.4%
14,Cc1cc(C)c(NC(=O)CNC(=O)Cc2sc(C)nc2-c2ccc(F)cc2)c(C)c1,12.4%
15,Cc1noc(C)c1C(=O)Nc1nnc(-c2ccccc2)s1,7.78%
16,O=C1CC(c2ccccc2)CN1C(=O)c1cncc(Br)c1 (stereo not drawn),13.3%
17,Cc1cc(C)cc(C(=O)Oc2coc(CSc3nnc(NC(=O)C4CC4)s3)cc2=O)c1,6.84%
18,CC(C)CC(O)C1CCN(C(=O)CCc2nnc(-c3ccc4c(c3)OCO4)o2)CC1 (stereo not drawn),13.6%
19,CN(C)c1ccc(/C=N/NC(=O)CCc2c[nH]c3ccccc23)cc1,6.21%
20,C/C(Cn1cnc([N+](=O)[O-])n1)=N\NC(=O)c1ccc(F)cc1,19.3%
21,CCc1ccc(NC(=O)CCc2nc3sc4c(c3c(=O)[nH]2)CCCC4)cc1,1.53%
22,CSC1=NCCN1C(=O)C(C)(C)Oc1ccc(Cl)cc1,7.31%
23,COc1ccccc1-c1coc2c(CN3CCC(C)CC3)c(O)ccc2c1=O,14.3%

row,Compound,"hERG current change (%, negative = inhibition) at 1uM"
1,CC(C)(C)C(=O)Nc1ccc(/C=C/C(=O)c2ccco2)cc1,13.9%
2,Clc1cccc(-c2nc3nc4ccccc4nc3n2Cc2ccccc2)c1,9.82%
3,COc1ccc(N(Cc2cc3ccc(C)cc3[nH]c2=O)C(C)=O)cc1,8.33%
4,Cc1[nH]c2ccccc2c1CC(=O)O,9.08%
5,Cc1c(NN=C(C#N)C#N)c(=O)n(-c2ccccc2)n1C,13.4%
6,Fc1ccc(-c2nnc(-c3ccc(Cl)cc3Cl)o2)cc1,-0.777%
7,Fc1ccc(-c2nnc(N3CCOCC3)c3ccccc23)cc1F,15%
8,CCN(CC)CCN1C(=O)C(=O)/C(=C(/O)c2ccc(F)cc2)C1c1cccnc1 (stereo not drawn),14.9%
9,O=c1c2c3c(sc2nc2n1CCC2)CCC3,10.8%
10,FC(F)(F)c1ccccc1NC(=S)NN=C1CCCCCC1,1.7%
11,O=C(NC(=S)Nc1cc(-c2nc3ccccc3[nH]2)ccc1Cl)c1ccc2c(c1)OCO2,17.5%
12,COc1ccc2nc(NS(=O)(=O)c3ccc(NC(C)=O)cc3)sc2c1,14.5%
13,Cc1cc(C(=O)CCl)c(C)n1CC1COc2ccccc2O1 (stereo not drawn),6%
14,O=C(O)c1cccc(NS(=O)(=O)c2ccc(NC(=O)c3ccco3)cc2)c1,13.9%
15,COc1cc2c(cc1OC)C(c1ccc(Br)cc1)N(C(=O)c1ccccc1C(=O)O)CC2 (stereo not drawn),10.4%
16,O=C(COc1ccccc1Cl)N1CCN(C(=O)c2ccco2)CC1,8.67%
17,COc1ccc(N(C)S(=O)(=O)c2ccc3c(c2)oc(=O)n3C)cc1,10.7%
18,CCOc1ccccc1NCc1nnc(-c2ccccc2)o1,14.9%
19,Cc1ccccc1-c1nc(-c2ccccn2)no1,4.47%
20,O=C1CSC(=Nc2ccccc2[N+](=O)[O-])N1,9.39%
21,CCOC(=O)N1CCN(Cc2nc3cc(NC(=O)C(C)C)ccc3n2CC)CC1,16.4%
